Measurements as given in publication PMC11804575, “BRAF^Δβ3-αC in-frame deletion mutants differ in their dimerization propensity, HSP90 dependence, and druggability” (Science Advances, 2023).

Target: the molecule itself
Test: co-IP; HA- and Myc-tagged BRAF coexpressed in HEK293T; lysed 48 h after transfection in NLB (50 mM tris/HCl pH 7.5, 1% Triton X-100, 137 mM NaCl); anti-HA antibody and Protein G-Sepharose, 4°C overnight, eight washes; immunoblot for Myc-BRAF and HSP90, quantified per precipitated HA-BRAF

B1: BRAF^ΔLNVTAP>F R509H (natural protein, human)
chain: MAALSGGGGGGAEPGQALFNGDMEPEAGAGAGAAASSAADPAIPEEVWNIKQMIKLTQEHIEALLDKFGGEHNPPSIYLEAYEEYTSKLDALQQREQQLLESLGNGTDFSVSSSASMDTVTSSSSSSLSVLPSSLSVFQNPTDVARSNPK[left out - about 80 residues]ENVPLTTHNFVRKTFFTLAFCDFCRKLLFQGFRCQTCGYKFHQRCSTEVPLMCVNYDQLDLLFVSKFFEHHPIPQEEASLAETALTSGSSPSAPASDSIGPQILTSPSPSKSIPIPQPFRPADEDHRNQFGQRDRSSSAPNVHINTIEPVNIDDLIRDQGFRGDGGSTTGLSATPPASLPGSLTNVKALQKSPGPQRERKSSSSSEDRNRMKTLGRRDSSDDWEIPDGQITVGQRIGSGSFGTVYKGKWHGDVAVKMFTPQQLQAFKNEVGVLRKTHHVNILLFMGYSTKPQLAIVTQWCEGSSLYHHLHIIETKFEMIKLIDIARQTAQGMDYLHAKSIIHRDLKSNNIFLHEDLTVKIGDFGLATVKSRWSGSHQFEQLSGSILWMAPEVIRMQDKNPYSFQSDVYAFGIVLYELMTGQLPYSNINNRDQIIFMVGRGYLSPDLSKVRSNCPKAMKRLMAECLKKKRDERPLFPQILASIELLARSLPKIHRSASEPSLNRAGFQTEDFSLYACASPKTPIQAGGYGAFPVH
notes: human BRAF ΔLNVTAP>F with the dimer interface mutation R509H; Residue numbers count on wild-type BRAF; The second co-expressed copy carried a C-terminal Myc tag instead of HA; source: HEK293T, transiently transfected, in lysate; not shown: HA, N-terminal, kept
Q: Which “fold homodimerization capacity over BRAF^V600E” value does the source give for B1 here?
A: 5 fold
